Reference: the supplement of paper PMC4967469

Tests used:
Test in all cases: Viability of human cancer cell lines after 72 h of drug (GDSC screen)
EX-527 = compound: NC(=O)C1CCCc2c1[nH]c1ccc(Cl)cc21 [EX-527]; details: top dose 20 µM
Description: (§1)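 Human cancer cell lines in 384-well plates, medium with 10% serum, drug for 72 h over a 256-fold dose range (nine 2-fold or five 4-fold steps up to the top dose). Adherent lines were fixed and stained with the nucleic acid dye Syto60, suspension lines read with resazurin; signal relative to control wells, capped at 0 and 100%. One two-parameter sigmoid per drug and line, fitted in a mixed model over all curves with the slope shared within a line.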

AS601245 = compound: N#CC(c1ccnc(NCCc2cccnc2)n1)c1nc2ccccc2s1 [AS601245]; details: top dose 8 µM; top dose inferred
Description: as §1

AZ628 = compound: Cc1ccc(NC(=O)c2cccc(C(C)(C)C#N)c2)cc1Nc1ccc2ncn(C)c(=O)c2c1 [AZ628]; details: top dose 4 µM; top dose inferred
Description: as §1

AZD6244 = compound: Cn1cnc2c(F)c(Nc3ccc(Br)cc3Cl)c(C(=O)NOCCO)cc21 [AZD6244]; details: top dose 4 µM; screen: GDSC drug entry 1498; top dose inferred
Description: as §1

YM201636 = compound: Nc1ccc(C(=O)Nc2cccc(-c3nc(N4CCOCC4)c4oc5ncccc5c4n3)c2)cn1 [YM201636]; details: top dose 5.12 µM; top dose inferred
Description: as §1

Row | Cell Line | AUC (EX-527) | IC50 (EX-527) | AUC (AS601245) | IC50 (AS601245) | AUC (AZ628) | IC50 (AZ628) | AUC (AZD6244) | IC50 (AZD6244) | AUC (YM201636) | IC50 (YM201636)
1 | NCI-H69 (small cell lung carcinoma, suspension) | 0.983 | > 20 µM | 0.947 | > 8 µM | 0.969 | > 4 µM | 0.983 | > 4 µM | 0.982 | > 5.12 µM
2 | NCI-H82 (small cell lung carcinoma, suspension) | 0.99 | > 20 µM | 0.986 | > 8 µM | 0.977 | > 4 µM | 0.984 | > 4 µM | 0.936 | > 5.12 µM
3 | NCI-H187 (small cell lung carcinoma, suspension) | 0.986 | > 20 µM | 0.981 | > 8 µM | 0.966 | > 4 µM | 0.984 | > 4 µM | 0.938 | > 5.12 µM
4 | NCI-H209 (small cell lung carcinoma, suspension) | 0.977 | > 20 µM | 0.944 | > 8 µM | 0.97 | > 4 µM | 0.983 | > 4 µM | 0.922 | > 5.12 µM
5 | NCI-H211 (small cell lung carcinoma, adherent) | 0.983 | > 20 µM | 0.883 | > 8 µM | 0.951 | > 4 µM | 0.97 | > 4 µM | 0.819 | 2.81 µM
6 | NCI-H226 (lung squamous cell carcinoma, adherent) | 0.98 | > 20 µM | 0.89 | > 8 µM | 0.963 | > 4 µM | 0.913 | > 4 µM | 0.926 | > 5.12 µM
7 | NCI-H322M (lung adenocarcinoma, suspension) | 0.987 | > 20 µM | 0.987 | > 8 µM | 0.887 | > 4 µM | 0.956 | > 4 µM | 0.96 | > 5.12 µM
8 | NCI-H345 (small cell lung carcinoma, suspension) | 0.988 | > 20 µM | 0.99 | > 8 µM | 0.99 | > 4 µM | 0.981 | > 4 µM | 0.988 | > 5.12 µM
9 | NCI-H446 (small cell lung carcinoma, semi-adherent) | 0.985 | > 20 µM | 0.979 | > 8 µM | 0.985 | > 4 µM | 0.984 | > 4 µM | 0.601 | 0.619 µM
10 | NCI-H524 (small cell lung carcinoma, suspension) | 0.989 | > 20 µM | 0.982 | > 8 µM | 0.969 | > 4 µM | 0.99 | > 4 µM | 0.991 | > 5.12 µM
11 | NCI-H526 (small cell lung carcinoma, suspension) | 0.986 | > 20 µM | 0.954 | > 8 µM | 0.99 | > 4 µM | 0.986 | > 4 µM | 0.875 | 4.65 µM
12 | NCI-H716 (large intestine, suspension) | 0.976 | > 20 µM | 0.969 | > 8 µM | 0.918 | > 4 µM | 0.722 | 1.28 µM | 0.865 | > 5.12 µM
13 | NCI-H720 (lung carcinoid, suspension) | 0.992 | > 20 µM | 0.992 | > 8 µM | 0.915 | > 4 µM | 0.984 | > 4 µM | 0.992 | > 5.12 µM
14 | NCI-H747 (large intestine, adherent) | 0.977 | > 20 µM | 0.853 | > 8 µM | 0.573 | 0.415 µM | 0.431 | 0.155 µM | 0.864 | > 5.12 µM
15 | NCI-H847 (small cell lung carcinoma, adherent) | 0.986 | > 20 µM | 0.757 | 2.29 µM | 0.982 | > 4 µM | 0.987 | > 4 µM | 0.788 | 1.79 µM
16 | NCI-H1092 (small cell lung carcinoma, suspension) | 0.989 | > 20 µM | 0.944 | > 8 µM | 0.973 | > 4 µM | 0.988 | > 4 µM | 0.945 | > 5.12 µM
17 | NCI-H1155 (large cell lung carcinoma, suspension) | 0.985 | > 20 µM | 0.979 | > 8 µM | 0.983 | > 4 µM | 0.983 | > 4 µM | 0.894 | 4.24 µM
18 | NCI-H1299 (large cell lung carcinoma, adherent) | 0.98 | > 20 µM | 0.724 | 2.55 µM | 0.933 | > 4 µM | 0.817 | 2.91 µM | 0.955 | > 5.12 µM

Row | Cell Line | AUC (EX-527) | IC50 (EX-527) | AUC (AS601245) | IC50 (AS601245) | AUC (AZ628) | IC50 (AZ628) | AUC (AZD6244) | IC50 (AZD6244) | AUC (YM201636) | IC50 (YM201636)
19 | NCI-H1304 (small cell lung carcinoma, suspension) | 0.981 | > 20 µM | 0.971 | > 8 µM | 0.979 | > 4 µM | 0.972 | > 4 µM | 0.987 | > 5.12 µM
20 | NCI-H1355 (lung adenocarcinoma, adherent) | 0.977 | > 20 µM | 0.587 | 0.962 µM | 0.881 | > 4 µM | 0.669 | 0.918 µM | 0.959 | > 5.12 µM
21 | NCI-H1395 (lung adenocarcinoma, adherent) | 0.979 | > 20 µM | 0.959 | > 8 µM | 0.9 | > 4 µM | 0.956 | > 4 µM | 0.881 | > 5.12 µM
22 | NCI-H1417 (small cell lung carcinoma, suspension) | 0.979 | > 20 µM | 0.96 | > 8 µM | 0.947 | > 4 µM | 0.54 | 0.329 µM | 0.864 | > 5.12 µM
23 | NCI-H1436 (small cell lung carcinoma, suspension) | 0.927 | > 20 µM | 0.946 | > 8 µM | 0.972 | > 4 µM | 0.95 | > 4 µM | 0.91 | > 5.12 µM
24 | NCI-H1581 (large cell lung carcinoma, semi-adherent) | 0.985 | > 20 µM | 0.96 | > 8 µM | 0.918 | > 4 µM | 0.951 | > 4 µM | 0.915 | > 5.12 µM
25 | NCI-H1648 (lung adenocarcinoma, adherent) | 0.978 | > 20 µM | 0.785 | 3.64 µM | 0.638 | 0.619 µM | 0.968 | > 4 µM | 0.9 | > 5.12 µM
26 | NCI-H1666 (lung adenocarcinoma, semi-adherent) | 0.974 | > 20 µM | 0.987 | > 8 µM | 0.884 | > 4 µM | 0.436 | 0.164 µM | 0.926 | > 5.12 µM
27 | NCI-H1694 (small cell lung carcinoma, suspension) | 0.987 | > 20 µM | 0.968 | > 8 µM | 0.989 | > 4 µM | 0.988 | > 4 µM | 0.932 | > 5.12 µM
28 | NCI-H1770 (non-small cell lung carcinoma, suspension) | 0.99 | > 20 µM | 0.835 | 4.38 µM | 0.98 | > 4 µM | 0.99 | > 4 µM | 0.971 | > 5.12 µM
29 | NCI-H1836 (small cell lung carcinoma, suspension) | 0.988 | > 20 µM | 0.973 | > 8 µM | 0.972 | > 4 µM | 0.977 | > 4 µM | 0.973 | > 5.12 µM
30 | NCI-H1838 (lung adenocarcinoma, adherent) | 0.98 | > 20 µM | 0.973 | > 8 µM | 0.924 | > 4 µM | 0.955 | > 4 µM | 0.975 | > 5.12 µM
31 | NCI-H1869 (lung squamous cell carcinoma, adherent) | 0.984 | > 20 µM | 0.793 | 4.2 µM | 0.966 | > 4 µM | 0.858 | 3.98 µM | 0.942 | > 5.12 µM
32 | NCI-H1876 (small cell lung carcinoma, adherent) | 0.987 | > 20 µM | 0.982 | > 8 µM | 0.967 | > 4 µM | 0.979 | > 4 µM | 0.912 | > 5.12 µM
33 | NCI-H1975 (lung adenocarcinoma, adherent) | 0.982 | > 20 µM | 0.652 | 1.41 µM | 0.922 | > 4 µM | 0.89 | > 4 µM | 0.881 | > 5.12 µM
34 | NCI-H2081 (small cell lung carcinoma, suspension) | 0.981 | > 20 µM | 0.944 | > 8 µM | 0.984 | > 4 µM | 0.975 | > 4 µM | 0.989 | > 5.12 µM
35 | NCI-H2135 (non-small cell lung carcinoma, adherent) | 0.985 | > 20 µM | 0.9 | > 8 µM | 0.688 | 0.824 µM | 0.99 | > 4 µM | 0.884 | > 5.12 µM
36 | NCI-H2141 (small cell lung carcinoma, suspension) | 0.99 | > 20 µM | 0.952 | > 8 µM | 0.989 | > 4 µM | 0.988 | > 4 µM | 0.989 | > 5.12 µM

IC50 is the fitted dose that halves viability relative to control wells, and lower means more sensitive; where the fit passes the top or lowest dose, that dose stands as a limit. The AUC spans the tested range (256-fold, ending at the top dose) of the same fit; values near 1 show little effect. For part of these data: A top dose marked as inferred comes from the curve model; the source does not state it. For part of these data: Drugs with an entry number were screened twice under separate entries, and the two screens often disagree.
